Source: patent US20190002581A1 (SUTRO BIOPHARMA, published 2019)

T1: cynomolgus EpCAM expressed on stably transfected CHO cells (cynomolgus monkey, UniProt Q1WER1 26-314 (rhesus entry))
T1 construct: also called Cyno EpCAM (CHO)
T1 sequence: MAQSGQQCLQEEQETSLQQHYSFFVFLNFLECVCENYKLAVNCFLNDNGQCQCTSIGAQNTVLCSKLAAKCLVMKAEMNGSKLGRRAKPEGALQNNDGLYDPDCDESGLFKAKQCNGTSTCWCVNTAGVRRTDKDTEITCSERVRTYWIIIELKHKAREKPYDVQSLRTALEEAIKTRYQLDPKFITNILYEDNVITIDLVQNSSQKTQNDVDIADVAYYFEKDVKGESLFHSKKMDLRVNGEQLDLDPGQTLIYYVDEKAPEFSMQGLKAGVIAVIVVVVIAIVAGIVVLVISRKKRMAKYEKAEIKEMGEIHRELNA

T2: human EpCAM expressed on cells (stably transfected CHO cells, HCT-116, JIMT1) (human, UniProt P16422 24-314)
T2 construct: also called Human EpCAM (CHO); Human EpCAM (HCT-116)
T2 sequence: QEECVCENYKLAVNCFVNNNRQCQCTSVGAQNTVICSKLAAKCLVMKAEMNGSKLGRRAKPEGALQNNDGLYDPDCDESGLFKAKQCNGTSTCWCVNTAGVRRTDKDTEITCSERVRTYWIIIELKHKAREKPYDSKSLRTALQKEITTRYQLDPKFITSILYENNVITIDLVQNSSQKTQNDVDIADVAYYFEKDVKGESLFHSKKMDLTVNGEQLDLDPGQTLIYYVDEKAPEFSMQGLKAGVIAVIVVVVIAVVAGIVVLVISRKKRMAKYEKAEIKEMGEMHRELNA

T3: human EpCAM-His (analyte of the Biacore experiments) (human, UniProt P16422 24-265)
T3 construct: also called Human EpCAM (Biacore); hEpCAM
T3 sequence: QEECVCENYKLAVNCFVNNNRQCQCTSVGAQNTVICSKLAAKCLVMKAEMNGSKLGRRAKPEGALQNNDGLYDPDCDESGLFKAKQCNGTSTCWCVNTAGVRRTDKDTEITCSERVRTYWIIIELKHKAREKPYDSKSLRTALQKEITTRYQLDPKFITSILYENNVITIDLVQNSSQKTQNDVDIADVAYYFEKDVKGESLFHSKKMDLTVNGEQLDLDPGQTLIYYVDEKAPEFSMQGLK

T4: cynomolgus EpCAM (Biacore) (cynomolgus monkey, limits assumed)
T4 construct: Construct used for the cyno Biacore measurements is not described; also called Cyno EpCAM (Biacore); cEpCAM
T4 chain: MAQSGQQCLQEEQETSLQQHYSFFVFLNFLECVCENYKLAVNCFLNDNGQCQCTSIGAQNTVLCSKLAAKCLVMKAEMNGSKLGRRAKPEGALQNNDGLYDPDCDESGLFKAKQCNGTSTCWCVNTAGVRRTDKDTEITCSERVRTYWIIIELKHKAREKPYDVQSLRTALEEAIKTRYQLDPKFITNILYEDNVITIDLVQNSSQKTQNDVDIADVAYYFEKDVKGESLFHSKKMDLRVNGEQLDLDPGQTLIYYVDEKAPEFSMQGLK

B1: SRP1557-A04 scFv-Fc antibody (Fc fusion)
chain: MEVQLLESGGGLVQPGGSLRLSCAASGFTFSGSSMSWVRQAPGKGLEWVGAIDGGEGSTAYADSVKGRFTISRDNSKNTLYLQMNSLRAEDTAVYYCAKGWHPQTMYDLDYWGQGTLVTVSSGGGGSGGGGSGGGGNEIVLTQSPGTLSLSPGERATLSCRASQNVSTNYLAWYQQKPGQAPRLLIYGASSRATGIPDRFSGSGSGTDFTLTISRLEPEDFAVYYCQQLVTNPPTFGQGTKVEIKAAGSDQ[letters of human IgG1 Fc with changes omitted]GSGDYKDDDDKGSGHHHHHH
notes: scFv-Fc format; the entry holds scFv, IgG1 Fc, FLAG and His tags
B2: SRP1557-G04 scFv-Fc antibody (Fc fusion)
chain: MEVQLLESGGGLVQPGGSLRLSCAASGFTFCGSSMSWVRQAPGKGLEWVGAIDGGVGSTGYADSVKGRFTISRDNSKNTLYLQMNSLRAEDTAVYYCAKGWHPQTLYDLDYWGQGTLVTVSSGGGDSGGGGSGGGGSEIVLTQSPGTLSLSPGERATLSCRASQSVSSSYLAWYQQKPGQAPRLLIYGASSRATGIPDRFSGSGSGTDFTLTISRLEPEDFAVYYCQQDSFVPPTFGQGTKVEIKAAGSDQ[letters of human IgG1 Fc with changes omitted]GSGDYKDDDDKGSGHHHHHH
notes: as for B1
B3: SRP1557-B10 scFv-Fc antibody (Fc fusion)
chain: MEVQLLESGGGLVQPGGSLRLSCAASGFTFSGCSMSWVRQAPGKGLEWVGAIAGGEGNTGYADSVKGRFTISRDNSKNTLYLQMNSLRAEDTAVYYCAKGWHPQTLYDLDYWGQGTLVTVSSGGGGSGGGGSGGGGSEIVLTQSPGTLSLSPGERATLSCRASQGLASRYMAWYQQKPGQAPRLLIYGASSRATGIPDRFSGSGSGTDFTLTISRLEPEDFAVYYCQQVMTIPPTFGQGTKVEIKAAGSDQ[letters of human IgG1 Fc with changes omitted]GSGDYKDDDDKGSGHHHHHH
notes: as for B1
B4: SRP1557-C06 scFv-Fc antibody (Fc fusion)
chain: MEVQLLESGGGLVQPGGSLRLSCAASGFTFRGASMSWVRQAPGKGLEWVGAIDGSQGSTGYADSVKGRFTISRDNSKNTLYLQMNSLRAEDTAVYYCAKGWHPQTMYDLDYWGQGTLVTVSSGGCGSGGGGSGGGGSEIVLTQSPGTLSLSPGERATLSCRASQRGTSSYLAWYQQKPGQAPRLLIYGASSRATGIPDRFSGSGSGTDFTLTISRLEPEDFAVYYCQQHVTSPPTFGQGTKVEIKAAGSDQ[letters of human IgG1 Fc with changes omitted]GSGDYKDDDDKGSGHHHHHH
notes: as for B1
B5: SRP1557-A05 scFv-Fc antibody (Fc fusion)
chain: MEVQLLESGGGLVQPGGSLRLSCAASGFTFGGSSMSWVRQAPGKGLEWVGAIGGGEGSTGYADSVKGRFTISRDNSKNTLYLQMNSLRAEDTAVYYCAKGWHDQSLYDRDYWGQGTLVTVSSGGGGSGGGGSGGGGSEIVLTQSPGTLSLSPGERATLSCSASQTVSSSYIAWYQQKPGQAPRLLIYGASSRATGIPDRFGGSGSGTDFTLTISRLEPEDFAVYYCQQLLTSPPTFGQGTKVEIKAAGSDQ[letters of human IgG1 Fc with changes omitted]GSGDYKDDDDKGSGHHHHHH
notes: as for B1
B6: SRP1557-F05 scFv-Fc antibody (Fc fusion)
chain: MEVQLLESGGGLVQPGGSLRLSCAASGFTFRGSSMSWVRQAPGKGLEWVGAIDGGEGSTGYADSVKGRFTISRDNSKNTLYLQMNSLRAEDTAVYYCAKDWHPQTLYDLDYWGQGTLVTVSSGGGGSGGGGSGGGGSEIVLTQSPGTLSLSPGERATLSCRASQTVSPSVLAWYQQKPGQAPRLLIYGASSRATGIPGRFSGSGSGTDFTLTISRLEPEDFAVYYCQQLVTNPPTFGQGTKVEIKAAGSDQ[letters of human IgG1 Fc with changes omitted]GSGDYKDDDDKGSGHHHHHH
notes: as for B1
B7: SRP1557-B03 scFv-Fc antibody (Fc fusion)
chain: MEVQLLESGGGLVQPGGSLRLSCAASGFTFRSSSMSWVRQAPGKGLEWVGAIGGHEGYTGYADSVKGRFTISRDNSKNTLYLQMNSLRAEDTAVYYCAKGWNPQTLYHLDYWGQGTLVTVSSGGGGSGGGGSGGGGSEIVLTQSPGTLSLSPGERATLSCRASQKCSSSSMAWYQQKPGQAPRLLIYGASSRATGIPDRFSGSGSGTDFTLTISRLEPEDFAVYYCQQLQTSPPTFGQGTKVEIKAAGSDQ[letters of human IgG1 Fc with changes omitted]GSGDYKDDDDKGSGHHHHHH
notes: as for B1
B8: SRP1304-G11 scFv-Fc antibody (Fc fusion)
chain: MEVQLLESGGGLVRPGGSLRLSCAASGFTFSGSSMSWVRQAPGKGLEWVGAIDGGDGYTNYADSVRGRFTISRDNSKNTLYLQMNSLRAEDTAVYYCAKGWHPQTYYGLDYWGQGTLVTVSSGGGGSGGGGSGGGGSEIVLTQSPGTLSLSPGERATLSCRASQSVSSSYLAWYQQKPGQAPRLLIYGASSRATGIPDRFSGSSSGTDFTLTISRLEPEDFAVYYCQQYWYGPPTFGQGTKVEIKAAGSDQ[letters of human IgG1 Fc with changes omitted]GGSHHHHHH
notes: scFv-Fc format

molecular target: T1, cynomolgus EpCAM expressed on stably …; assay: flow cytometry, CHO cells expressing cyno EpCAM
Description: (§1) CHO-k cells were transfected to stably express EpCAM on the cell surface. CHO parental and stably transfected CHO-EpCAM (human, cynomolgus and mouse EpCAM-expressing cells) cells were washed with DPBS, detached with Accutase™ (BD Biosciences; San Jose, Calif.), and resuspended in ice-cold FACS buffer (DPBS buffer supplemented with 0.5% bovine serum albumin).
(§2) A total of 200,000 cells per 96-well were incubated on ice for 60 mins with 100 nM of test antibodies diluted in FACS buffer. Cells were washed twice with FACS buffer and incubated on ice for 30 mins with R-phycoerythrin AffiniPure F(ab′)₂ fragment, goat anti-Human IgG, Fcγ fragment specific secondary detection antibody (Jackson ImmunoResearch Laboratories, West Grove, Pa.) diluted at 1:200 with FACS buffer. Cells were washed twice with FACS buffer, fixed in 4% paraformaldehyde in PBS (Santa Cruz Biotechnology; Dallas, Tex.) for 20 mins on ice in the dark, washed twice with FACS buffer and analyzed using the BD LSR II Flow Cytometer (BD Biosciences; San Jose, Calif.). Data were analyzed using FlowJo (FlowJo, LLC; Ashland, Oreg.) to determine mean fluorescence intensities. Binding constants were calculated using the statistical software, GraphPad Prism (GraphPad Software; La Jolla, Calif.) using the nonlinear regression equation, one site-specific binding with Hill slope. Secondary antibody alone was used as a control, in addition to measuring non-specific EpCAM antibody binding to CHO parental cells. For some variants, binding to human tumor cells, HCT 116 and JIMT1 cells were also evaluated.

Kd [nM] | Binder
2.5 | B1
1.83 | B2
1.35 | B3
0.7 | B4
1.83 | B5
2.99 | B6
1.59 | B7

molecular target: T2, human EpCAM expressed on cells (stably …); assay: flow cytometry, CHO cells expressing human EpCAM
Description: as §1, §2

Kd [nM] | Binder
1.85 | B1
3.68 | B2
1.71 | B3
1.08 | B4
2.49 | B5
3.24 | B6
1.45 | B7
3 | B8

molecular target: T3, human EpCAM-His (analyte of the Biacore …); assay: SPR (Biacore), scFv-Fc captured on anti-FLAG, human EpCAM-His as analyte, 25 C
Description: Monoclonal Anti-FLAG M2 IgG (Sigma-Aldrich # F9291) was immobilized onto a CMS chip (GE Life Sciences) using amine coupling chemistry (from Amine Coupling Kit, GE Life Sciences). The immobilization steps were carried out at a flow rate of 25 μL/min in 1×HBS-EP+ buffer (GE Life Sciences; 10× Stock diluted before use). The sensor surfaces were activated for 7 min with a mixture of NHS (0.05 M) and EDC (0.2 M). The Anti-Flag M2 IgG was injected over all 4 flow cells at a concentration of 25 μg/mL in 10 mM sodium acetate, pH 4.5, for 7 min. Ethanolamine (1 M, pH 8.5) was injected for 7 min to block any remaining activated groups. An average of 12,000 response units (RU) of capture antibody was immobilized on each flow cell.
Off-rate and Kinetic binding experiments were performed at 25° C. using 1×HBS-EP+ buffer. Test and control antibodies were injected over the Anti-FLAG surface at concentrations of 5-10 μg/mL for 12 seconds at a flow rate of 10 μL/min on flow cells 2, 3 and 4, followed by a buffer wash for 30 seconds at the same flow rate. Kinetic characterization of antibody samples was carried out with a single concentration of antigen (for off-rate ranking) or a 1:2 dilution series of antigen (for kinetic characterization) and 1 injection of 0 nM antigen. After capturing ligand (antibody) on the anti-FLAG surface, the analyte (human EpCAM-His) was bound at 50, 25, 12.5, 6.25 and 0 nM for 180 seconds, followed by a 600 second dissociation phase at a flow rate of 50 μl/min. Between each ligand capture and analyte binding cycle, regeneration was carried out using 2 injections of 10 mM glycine pH 2.0 for 30 seconds at 30 μL/min, followed by a 30 second buffer wash step.
The data were fit with the Biacore T200 Evaluation software, using a 1:1 Langmuir binding model. KD (affinity, nM) was determined as a ratio of the kinetic rate constants calculated from the fits of the association and dissociation phases.

Kd [nM] | koff [s⁻¹] | kon [M⁻¹ s⁻¹] | Binder
1.78 | 0.000375 | 210000 | B1
4.17 | 0.000598 | 143000 | B3
5.46 | 0.000908 | 166000 | B4
3.56 | 0.000784 | 220000 | B5
3.43 | 0.00051 | 149000 | B7
3.99 | 0.000412 | 103000 | B8

Molecular target: T4, cynomolgus EpCAM (Biacore)
Assay: SPR (Biacore), cyno EpCAM

Kd [nM] | Binder
18.2 | B1
39.9 | B3
29.7 | B4
22.9 | B5
120 | B7
